Some of the results follow.
How the values were obtained:
HSkMC = human skeletal muscle cells; test: cytotoxicity call (relative viability < 0.9); details: 10 µM
S. aureus RN4220 = test: growth inhibition call (relative growth <= 0.2); details: 50 µM

Compound | cytotoxicity call (HSkMC) | growth inhibition call (S. aureus RN4220)
CCS(=O)(=O)Nc1ccc2c(c1)C(=O)N(C)[C@@H]1CC[C@@H](CC(=O)NCCOC)O[C@@H]1CO2 | inactive | inactive
NS(=O)(=O)c1ccc(F)c([N+](=O)[O-])c1 | inactive | inactive
CC(C)NC(=O)N(C)C[C@H]1Oc2ccc(NC(=O)CCC(F)(F)F)cc2CC(=O)N([C@H](C)CO)C[C@H]1C | inactive | inactive
C/C=C/c1ccc(OC)cc1 | inactive | inactive
C[C@H]1CN([C@@H](C)CO)C(=O)c2cccc(NC(=O)c3ccncc3)c2O[C@H]1CN(C)S(=O)(=O)c1ccccc1 | inactive | inactive
C[C@H]1CN([C@@H](C)CO)C(=O)c2cc(NC(=O)Nc3ccc(C(F)(F)F)cc3)ccc2O[C@H]1CN(C)C(=O)NC1CCCCC1 | inactive | inactive
COc1ccc(NC(=O)Nc2ccc3c(c2)C(=O)N([C@@H](C)CO)C[C@H](C)[C@H](CN(C)Cc2ccc4c(c2)OCO4)OCCCC[C@@H](C)O3)cc1 | inactive | inactive
C[C@H]1CN([C@@H](C)CO)S(=O)(=O)c2ccc(C3=CCCCC3)cc2O[C@@H]1CN(C)C(=O)C1CCOCC1 | inactive | inactive
COc1ccc2c3c([nH]c2c1)[C@@H](CO)N(C[C@]13CCN(CC1)CC1CCCCC1)C(=O)Nc1c(noc1C)C | inactive | inactive
COc1ccc(NC(=O)Nc2ccc3c(c2)C(=O)N([C@H](C)CO)C[C@H](C)[C@H](CN(C)C(=O)CCC(F)(F)F)OCCCC[C@H](C)O3)cc1 | inactive | inactive
C[C@@H]1CN([C@H](C)CO)C(=O)c2cc(NS(=O)(=O)c3ccccc3)ccc2O[C@H]1CN(C)C(=O)Nc1cccc2ccccc12 | inactive | inactive
COc1ccc(S(=O)(=O)N(C)C[C@@H]2Oc3c(NS(=O)(=O)c4ccccc4)cccc3C(=O)N([C@H](C)CO)C[C@H]2C)cc1 | inactive | inactive
COCCOC(=O)N1C(=O)[C@@]2(c3cc(C#CC4(O)CCCCCC4)ccc31)[C@H](c1ccc(OCCO)cc1)N1[C@H](c3ccccc3)[C@H](c3ccccc3)OC(=O)[C@H]1[C@@H]2C(N)=O | inactive | inactive
Cc1noc(C)c1S(=O)(=O)Nc1ccc2c(c1)C(=O)N([C@@H](C)CO)C[C@H](C)[C@@H](CN(C)C(=O)NC1CCCCC1)O2 | inactive | inactive
CO[C@@H]1CN(C)C(=O)c2cc(NC(=O)NC3CCCCC3)ccc2OC[C@H](C)N(CCc2ccccc2)C[C@@H]1C | inactive | inactive
O=C1CCC(c2ccc(O)cc2)CC1 | inactive | inactive
C[C@@H]1CCCCO[C@H](CN(C)C(=O)Nc2ccc(C(F)(F)F)cc2)[C@@H](C)CN([C@H](C)CO)C(=O)c2cc(NS(=O)(=O)c3ccc(F)cc3)ccc2O1 | inactive | inactive
COc1ccc(S(=O)(=O)Nc2ccc3c(c2)C(=O)N([C@H](C)CO)C[C@H](C)[C@H](CN(C)Cc2ccc(Oc4ccccc4)cc2)O3)cc1 | inactive | inactive
O=C(C[C@H]1C[C@@H]2c3cc(NS(=O)(=O)c4ccc(F)cc4)ccc3O[C@@H]2[C@@H](CO)O1)NCc1ccc(Oc2ccccc2)cc1 | inactive | inactive
C[C@H](CO)N1C[C@H](C)[C@@H](CN(C)Cc2ccc(Oc3ccccc3)cc2)Oc2ccc(NS(=O)(=O)c3cccs3)cc2CC1=O | inactive | inactive

Compound | cytotoxicity call (HSkMC) | growth inhibition call (S. aureus RN4220)
C[C@@H]1CN([C@H](C)CO)C(=O)c2cccc(NC(=O)C3CC3)c2O[C@@H]1CN(C)S(=O)(=O)c1ccc(F)cc1 | inactive | inactive
Cc1ccc(S(=O)(=O)N(C)C[C@H]2OCCCC[C@H](C)Oc3ccc(NC(=O)Nc4c(C)noc4C)cc3C(=O)N([C@@H](C)CO)C[C@@H]2C)cc1 | inactive | inactive
COc1ccc(S(=O)(=O)Nc2ccc3c(c2)C(=O)N([C@H](C)CO)C[C@H](C)[C@@H](CN(C)S(=O)(=O)c2ccc(Cl)cc2)OCCCC[C@H](C)O3)cc1 | inactive | inactive
CCS(=O)(=O)NCC[C@@H]1CC[C@@H](NC(=O)C2CC2)[C@@H](CO)O1 | inactive | inactive
COc1ccc(CN(C)C[C@@H]2OCCCC[C@@H](C)Oc3ccc(NC(=O)CCCCCC(=O)Nc4ccccc4N)cc3C(=O)N([C@H](C)CO)C[C@@H]2C)cc1 | inactive | inactive
O=C(C[C@@H]1CC[C@H](NC(=O)CN2CCOCC2)[C@H](CO)O1)NCCc1ccccc1 | inactive | inactive
C=CC[C@H](CC(=O)NCCO)C(=O)N[C@@H](COC(=O)[C@@H](CC=C)CC(=O)OC(C)(C)C)Cc1ccccc1 | inactive | inactive
C[C@@H]1CN([C@H](C)CO)C(=O)Cc2cc(NC(=O)Cc3cn(C)c4ccccc34)ccc2O[C@H]1CN(C)Cc1ccc(Oc2ccccc2)cc1 | inactive | inactive
Fc1ccc(Nc2ncnc3sc(-c4ccccc4)cc23)cc1 | active | inactive
CC(C)NC(=O)N(C)C[C@@H]1Oc2c(NC(=O)C3CCCCC3)cccc2C(=O)N([C@H](C)CO)C[C@H]1C | inactive | inactive
C[C@H](CO)N1C[C@H](C)[C@H](CN(C)Cc2ccc(C(=O)O)cc2)Oc2c(NC(=O)C3CCOCC3)cccc2C1=O | inactive | inactive
Cc1ccc(S(=O)(=O)Nc2ccc3c(c2)C(=O)N([C@@H](C)CO)C[C@@H](C)[C@H](CN(C)Cc2ccc(Cl)c(Cl)c2)OCCCC[C@@H](C)O3)cc1 | inactive | inactive
COc1ccc([C@H]2CNCCN2)cc1 | inactive | inactive
Cc1ccc(S(=O)(=O)N(C)C[C@@H]2OCCCC[C@H](C)Oc3ccc(NC(=O)C4CCCCC4)cc3C(=O)N([C@H](C)CO)C[C@@H]2C)cc1 | inactive | inactive
COc1ccc([C@H]([C@H](Cc2ccccc2)OC(C)=O)N(C/C=C\[C@@H](O)c2ccccc2)[C@@H](Cc2ccccc2)C(OC)OC)cc1 | inactive | inactive
CCCSc1nc(N[C@@H]2C[C@H]2c2ccc(F)c(F)c2)c2nnn([C@@H]3C[C@H](OCCO)[C@@H](O)[C@H]3O)c2n1 | inactive | active
C[C@H](CO)N1C[C@H](C)[C@@H](CN(C)S(=O)(=O)c2cn(C)cn2)Oc2ccc(NS(=O)(=O)c3cn(C)cn3)cc2CC1=O | inactive | inactive
Cc1ccc(S(=O)(=O)NCC[C@@H]2CC[C@H](NS(=O)(=O)c3ccccc3Cl)[C@@H](CO)O2)cc1 | inactive | inactive
COc1ccc(NC(=O)Nc2ccc3c(c2)C(=O)N([C@@H](C)CO)C[C@@H](C)[C@H](CN(C)Cc2ccc(C(F)(F)F)cc2)OCCCC[C@H](C)O3)cc1 | inactive | inactive
CN(C[C@@H](O)CN)S(=O)(=O)c1ccccc1 | inactive | inactive

Compound | cytotoxicity call (HSkMC) | growth inhibition call (S. aureus RN4220)
C[C@@H]1CN([C@@H](C)CO)C(=O)Cc2cc(NC(=O)NC3CCCCC3)ccc2O[C@H]1CN(C)Cc1ccc(C(F)(F)F)cc1 | inactive | inactive
C[C@@H]1O[C@@H](O[C@@H]2C=C(CO)[C@H]3[C@H](O[C@@H]4O[C@H](CO)[C@@H](O)[C@H](O)[C@H]4O)OC=C[C@H]32)[C@H](O)[C@H](O)[C@H]1OC(=O)/C=C/c1ccccc1 | inactive | inactive
COc1ccc(NC(=O)Nc2ccc3c(c2)[C@@H]2C[C@H](CC(=O)N4CCN(C)CC4)O[C@@H](CO)[C@@H]2O3)cc1 | inactive | inactive
Cc1noc(C)c1S(=O)(=O)N(C)C[C@@H]1Oc2ccc(NC(=O)NC3CCCCC3)cc2CC(=O)N([C@@H](C)CO)C[C@H]1C | inactive | inactive
O=C(Nc1cc(C(F)(F)F)cc(C(F)(F)F)c1)Nc1c(Br)cc(Br)cc1-c1nn[nH]n1 | inactive | active
C[C@@H]1CN([C@H](C)CO)C(=O)Cc2cc(NC(=O)NC3CCCCC3)ccc2O[C@H]1CN(C)Cc1ccc(C(F)(F)F)cc1 | inactive | inactive
OCCN1CNC(=S)NC1 | inactive | inactive
C[C@@H]1CN([C@@H](C)CO)C(=O)c2cc(NC(=O)Nc3ccccc3)ccc2O[C@H]1CN(C)Cc1ccc(C(F)(F)F)cc1 | active | inactive
Cc1noc(C)c1S(=O)(=O)Nc1ccc2c(c1)CC(=O)N([C@H](C)CO)C[C@H](C)[C@H](CN(C)Cc1ccncc1)O2 | inactive | inactive
COc1ccc(S(=O)(=O)Nc2ccc3c(c2)C(=O)N([C@@H](C)CO)C[C@H](C)[C@@H](CN(C)C(=O)Nc2cccc4ccccc24)OCCCC[C@@H](C)O3)cc1 | inactive | inactive
C[C@H](CO)N1C[C@H](C)[C@@H](CN(C)CC2CCCCC2)Oc2c(NC(=O)Nc3ccccc3)cccc2C1=O | inactive | inactive
C[C@H](CO)N1C[C@H](C)[C@@H](CN(C)S(=O)(=O)c2ccccc2)Oc2ccc(NC(=O)CCN3CCOCC3)cc2CC1=O | inactive | inactive
C[C@H]1CN([C@@H](C)CO)C(=O)c2cc(NC(=O)Nc3ccccc3)ccc2O[C@H]1CN(C)Cc1ccc(C(=O)Nc2ccccc2N)cc1 | inactive | inactive
C[C@@H]1CN([C@H](C)CO)C(=O)c2cccc(NS(=O)(=O)c3ccc(Cl)cc3)c2O[C@H]1CN(C)Cc1ccc(-c2ccccc2)cc1 | inactive | inactive
C[C@@H]1CN([C@H](C)CO)C(=O)c2cccc(NS(=O)(=O)c3ccc(F)cc3)c2O[C@H]1CN(C)S(=O)(=O)c1ccc(F)cc1 | inactive | inactive
C[C@H]1CN([C@@H](C)CO)C(=O)c2cccc(NC(=O)C3CCCCC3)c2O[C@@H]1CN(C)Cc1ccc(C(F)(F)F)cc1 | inactive | inactive
NCCN1CCOCC1 | inactive | inactive
COc1ccc(NC(=O)Nc2ccc3c(c2)C(=O)N([C@@H](C)CO)C[C@H](C)[C@H](CN(C)C(=O)Nc2ccc(C(F)(F)F)cc2)OCCCC[C@H](C)O3)cc1 | inactive | inactive
